The inconclusive results got no clear call from the source; some entries with a clear call stand among them for comparison. Where the call is inconclusive, the potency comes from a doubtful curve fit. The source holds several records for some structures; these can differ, active in one and inactive in another. Activity calls are given as the source filed them. Calls come from the whole dose curve; as a rule, active = well fitted cell-killing curve with a large enough effect in the repeat runs; inconclusive = weak or mixed curves, or effect the other way; inactive = flat fitted curve, though single readings scatter.
Test: qHTS RealTime-Glo MT Cell Viability Assay in HEK293 cells - 32 hour (AID 1224868); note: nearly all actives have a fitted effect of over 50% in size
Conditions: RealTime-Glo luminescence; series mostly up to 76.8 µM
Method in brief: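 Homogeneous bioluminescent viability format in HEK293 cells (600 cells/well). Following 5 h at 37 C/5% CO2, 23 nL compound was pintooled; the signal was measured repeatedly during 40 h incubation.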
Potency is the fitted concentration of half-maximal effect; tags give direction and shape of the fitted curve.

Row | Compound | Potency
1 | O=C1OC2(c3ccc(O)cc3Oc3cc(O)ccc32)c2ccc(N=C=S)cc21 | inconclusive: 55.9 µM [cytotoxic, single point]
2 | CN(Cc1cc(Br)cc(Br)c1N)C1CCCCC1 | inconclusive: 26.8 µM [cytotoxic, single point]
3 | O=Cc1cc(O)ccc1Br | inconclusive: 19.8 µM [cytotoxic, partial curve]
4 | CCCC(C(=O)OCCN(CC)CC)(c1ccccc1)c1ccccc1 | active: 21.3 µM
5 | O=C1OC2(c3ccccc31)c1cc(I)c(O)c(I)c1Oc1c2cc(I)c(O)c1I | inconclusive: 23.6 µM [cytotoxic, partial curve, poor fit]
6 | CC1(C)O[C@@H]2C[C@H]3[C@@H]4CCC5=CC(=O)CC[C@]5(C)[C@@]4(F)[C@@H](O)C[C@]3(C)[C@]2(C(=O)CCl)O1 | inconclusive: 26.8 µM [cytotoxic, partial curve, poor fit]
7 | C[C@H](CN1CCCC1)C(=O)c1ccc(C(F)(F)F)cc1 | inconclusive: 26.8 µM [cytotoxic, single point]
8 | Cc1ccc2oc(CN(Cc3ccccc3)C(=O)Nc3c(F)cc(F)cc3F)c(-c3ccc(Cl)cc3)c2c1 | inactive
9 | C#C[C@]1(O)CC[C@H]2[C@@H]3CCc4cc(OC5CCCC5)ccc4[C@H]3CC[C@@]21C | active: 23.9 µM
10 | O=C(N/N=C/c1ccccc1O)c1ccncc1 | inconclusive: 23.9 µM [cytotoxic, single point]
11 | CC[C@@H]1C[C@H](N(Cc2cc(C(F)(F)F)cc(C(F)(F)F)c2)C(C)=O)c2cc(C(F)(F)F)ccc2N1C(=O)OC(C)C | inconclusive: 19.5 µM [cytotoxic, partial curve]
12 | Cc1cc(C)c(N=Nc2c(O)c(S(=O)(=O)O)cc3cc(S(=O)(=O)O)ccc23)cc1C | inconclusive: 3.06 µM [rising, partial curve]

Reference: PubChem BioAssay (Tox21)
